# The other results are listed elsewhere or left out.
# Key:
# Assay in all cases: glycan array binding signal (z-score within array); higher = stronger binding
# Settings in all cases: glycan notation: IUPAC condensed, linker removed
# [1] = target: Fuc(a1-2)Gal
# Procedure, shortened: (§1)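 Negative Z-scores can be read as non-binding. The Z-score is calculated within each array and then averaged across arrays of one protein sequence at different concentrations or buffers and across linkers. Arrays, 3228 in all, were curated from the Consortium for Functional Glycomics database and kept only where the protein sequence was available.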
# [2] = target: Fuc(a1-2)Gal(b1-3)GalNAc
# Procedure, shortened: as §1
# [3] = target: Fuc(a1-2)Gal(b1-3)GalNAc(a1-3)[Fuc(a1-2)]Gal(b1-4)Glc
# Procedure, shortened: as §1
# [4] = target: Fuc(a1-2)Gal(b1-3)GalNAc(a1-3)[Fuc(a1-2)]Gal(b1-4)GlcNAc
# Procedure, shortened: as §1
# [5] = target: Fuc(a1-2)Gal(b1-3)GalNAc(b1-3)Gal
# Procedure, shortened: as §1
# [6] = target: Fuc(a1-2)Gal(b1-3)GalNAc(b1-3)Gal(a1-4)Gal(b1-4)Glc
# Procedure, shortened: as §1
# [7] = target: Fuc(a1-2)Gal(b1-3)GalNAc(b1-4)[Neu5Ac(a2-3)]Gal(b1-4)Glc
# Procedure, shortened: as §1
# [8] = target: Fuc(a1-2)Gal(b1-3)GlcNAc
# Procedure, shortened: as §1
# [9] = target: Fuc(a1-2)Gal(b1-3)GlcNAc(b1-2)Man(a1-3)[Fuc(a1-2)Gal(b1-3)GlcNAc(b1-2)Man(a1-6)]Man(b1-4)GlcNAc(b1-4)GlcNAc
# Procedure, shortened: as §1
# [10] = target: Fuc(a1-2)Gal(b1-3)GlcNAc(b1-2)Man(a1-3)[Fuc(a1-2)Gal(b1-3)GlcNAc(b1-2)Man(a1-6)]Man(b1-4)GlcNAc(b1-4)[Fuc(a1-6)]GlcNAc
# Procedure, shortened: as §1
# [11] = target: Fuc(a1-2)Gal(b1-3)GlcNAc(b1-3)Gal(b1-4)Glc
# Procedure, shortened: as §1
# [12] = target: Fuc(a1-2)Gal(b1-3)GlcNAc(b1-3)GalNAc
# Procedure, shortened: as §1
# [13] = target: Fuc(a1-2)Gal(b1-3)GlcNAc(b1-3)[Fuc(a1-2)Gal(b1-3)GlcNAc(b1-6)]GalNAc
# Procedure, shortened: as §1
# [14] = target: Fuc(a1-2)Gal(b1-3)GlcNAc(b1-3)[Gal(b1-4)GlcNAc(b1-6)]Gal(b1-4)Glc
# Procedure, shortened: as §1
# [15] = target: Fuc(a1-2)Gal(b1-3)GlcNAc(b1-3)[Neu5Ac(a2-6)Gal(b1-4)GlcNAc(b1-6)]Gal(b1-4)Glc
# Procedure, shortened: as §1
# [16] = target: Fuc(a1-2)Gal(b1-3)GlcNAc6S
# Procedure, shortened: as §1
# [17] = target: Fuc(a1-2)Gal(b1-3)[Fuc(a1-4)]GlcNAc
# Procedure, shortened: as §1
# [18] = target: Fuc(a1-2)Gal(b1-3)[Fuc(a1-4)]GlcNAc(b1-2)Man(a1-3)[Fuc(a1-2)Gal(b1-3)[Fuc(a1-4)]GlcNAc(b1-2)Man(a1-3)]Man(b1-4)GlcNAc(b1-4)GlcNAc
# Procedure, shortened: as §1
# [19] = target: Fuc(a1-2)Gal(b1-3)[Fuc(a1-4)]GlcNAc(b1-2)Man(a1-3)[Fuc(a1-2)Gal(b1-3)[Fuc(a1-4)]GlcNAc(b1-2)Man(a1-6)]Man(b1-4)GlcNAc(b1-4)[Fuc(a1-6)]GlcNAc(b1-4)[Fuc(a1-6)]GlcNAc
# Procedure, shortened: as §1
# [20] = target: Fuc(a1-2)Gal(b1-3)[Fuc(a1-4)]GlcNAc(b1-3)[Fuc(a1-3)[Gal(b1-4)]GlcNAc(b1-6)]Gal(b1-4)Glc
# Procedure, shortened: as §1
# [21] = target: Fuc(a1-2)Gal(b1-3)[Fuc(a1-4)]GlcNAc(b1-3)[Gal(b1-4)GlcNAc(b1-6)]Gal(b1-4)Glc
# Procedure, shortened: as §1
# [22] = target: Fuc(a1-2)Gal(b1-4)Glc
# Procedure, shortened: as §1
# [23] = target: Fuc(a1-2)Gal(b1-4)Glc6S
# Procedure, shortened: as §1
# [24] = target: Fuc(a1-2)Gal(b1-4)GlcNAc
# Procedure, shortened: as §1
# [25] = target: Fuc(a1-2)Gal(b1-4)GlcNAc(b1-2)Man
# Procedure, shortened: as §1
# [26] = target: Fuc(a1-2)Gal(b1-4)GlcNAc(b1-2)Man(a1-3)[Fuc(a1-2)Gal(b1-4)GlcNAc(b1-2)Man(a1-6)]Man(b1-4)GlcNAc(b1-4)GlcNAc
# Procedure, shortened: as §1
# [27] = target: Fuc(a1-2)Gal(b1-4)GlcNAc(b1-2)Man(a1-3)[Fuc(a1-2)Gal(b1-4)GlcNAc(b1-2)Man(a1-6)]Man(b1-4)GlcNAc(b1-4)[Fuc(a1-6)]GlcNAc
# Procedure, shortened: as §1
# [28] = target: Fuc(a1-2)Gal(b1-4)GlcNAc(b1-2)[Fuc(a1-2)Gal(b1-4)GlcNAc(b1-4)]Man(a1-3)[Fuc(a1-2)Gal(b1-4)GlcNAc(b1-2)Man(a1-6)]Man(b1-4)GlcNAc(b1-4)GlcNAc
# Procedure, shortened: as §1
# [29] = target: Fuc(a1-2)Gal(b1-4)GlcNAc(b1-3)Gal(b1-4)GlcNAc
# Procedure, shortened: as §1
# [30] = target: Fuc(a1-2)Gal(b1-4)GlcNAc(b1-3)Gal(b1-4)GlcNAc(b1-2)Man(a1-3)[Fuc(a1-2)Gal(b1-4)GlcNAc(b1-3)Gal(b1-4)GlcNAc(b1-2)Man(a1-6)]Man(b1-4)GlcNAc(b1-4)GlcNAc
# Procedure, shortened: as §1
# [31] = target: Fuc(a1-2)Gal(b1-4)GlcNAc(b1-3)Gal(b1-4)GlcNAc(b1-3)Gal(b1-4)GlcNAc
# Procedure, shortened: as §1
# [32] = target: Fuc(a1-2)Gal(b1-4)GlcNAc(b1-3)GalNAc
# Procedure, shortened: as §1
# [33] = target: Fuc(a1-2)Gal(b1-4)GlcNAc(b1-3)[Fuc(a1-2)Gal(b1-4)GlcNAc(b1-6)]GalNAc
# Procedure, shortened: as §1
# [34] = target: Fuc(a1-2)Gal(b1-4)GlcNAc(b1-3)[Fuc(a1-3)[Gal(b1-4)]GlcNAc(b1-6)]Gal(b1-4)Glc
# Procedure, shortened: as §1
# [35] = target: Fuc(a1-2)Gal(b1-4)GlcNAc(b1-6)GalNAc
# Procedure, shortened: as §1
# [36] = target: Fuc(a1-2)Gal(b1-4)GlcNAc6S
# Procedure, shortened: as §1
# [37] = target: Fuc(a1-2)Gal(b1-4)[Fuc(a1-3)]GlcNAc
# Procedure, shortened: as §1
# [38] = target: Fuc(a1-2)Gal(b1-4)[Fuc(a1-3)]GlcNAc(b1-2)Man(a1-3)[Fuc(a1-2)Gal(b1-4)[Fuc(a1-3)]GlcNAc(b1-2)Man(a1-6)]Man(b1-4)GlcNAc(b1-4)[Fuc(a1-6)]GlcNAc
# Procedure, shortened: as §1
# [39] = target: Fuc(a1-2)Gal(b1-4)[Fuc(a1-3)]GlcNAc(b1-2)[Fuc(a1-2)Gal(b1-4)[Fuc(a1-3)]GlcNAc(b1-4)]Man(a1-3)[Fuc(a1-2)Gal(b1-4)[Fuc(a1-3)]GlcNAc(b1-2)Man(a1-6)]Man(b1-4)GlcNAc(b1-4)GlcNAc
# Procedure, shortened: as §1
# [40] = target: Fuc(a1-2)Gal(b1-4)[Fuc(a1-3)]GlcNAc(b1-3)Gal(b1-4)[Fuc(a1-3)]GlcNAc
# Procedure, shortened: as §1
# [41] = target: Fuc(a1-2)Gal(b1-4)[Fuc(a1-3)]GlcNAc(b1-3)Gal(b1-4)[Fuc(a1-3)]GlcNAc(b1-3)Gal(b1-4)[Fuc(a1-3)]GlcNAc
# Procedure, shortened: as §1
# [42] = target: Fuc(a1-2)Gal(b1-4)[Fuc(a1-3)]GlcNAc(b1-3)GalNAc
# Procedure, shortened: as §1
# [43] = target: Fuc(a1-2)Gal(b1-4)[Fuc(a1-3)]GlcNAc(b1-3)[Neu5Ac(a2-6)Gal(b1-4)GlcNAc(b1-6)]Gal(b1-4)Glc
# Procedure, shortened: as §1
# [44] = target: Fuc(a1-2)Gal3S(b1-4)GlcNAc
# Procedure, shortened: as §1
# [45] = target: Fuc(a1-2)Gal6S(b1-3)GlcNAc
# Procedure, shortened: as §1
binder,measurement,setting,value
Arath Fbox LD (Arabidopsis thaliana) (protein) EFSVWLEKASGKRCLMLSAMNLSIIWGDNPQYWQWIPIPESRFEKVAKLRDVCWFEIRGRTNTRVLSPRTRYSAYIVFKGVDKCYGFQNVAIEAAVGVVGQEPSRRLICFSEAIRRGRRNVVKPKQREDGWMEIELGEFFNDGGIMDNDEIEMSALETKQLNRKCGLIIQGIEIRPAKILAAASFLEQKLISEEDLNSAVDHHHHHH,glycan array binding signal (z-score),[1],0.094
same,glycan array binding signal (z-score),[2],-0.488
same,glycan array binding signal (z-score),[3],-0.137
same,glycan array binding signal (z-score),[4],-0.427
same,glycan array binding signal (z-score),[5],-0.344
same,glycan array binding signal (z-score),[6],-0.358
same,glycan array binding signal (z-score),[7],0.037
same,glycan array binding signal (z-score),[8],1.32
same,glycan array binding signal (z-score),[9],-0.423
same,glycan array binding signal (z-score),[10],0.392
same,glycan array binding signal (z-score),[11],-0.109
same,glycan array binding signal (z-score),[12],-0.338
same,glycan array binding signal (z-score),[13],-0.273
same,glycan array binding signal (z-score),[14],-0.625
same,glycan array binding signal (z-score),[15],-0.52
same,glycan array binding signal (z-score),[16],-0.164
same,glycan array binding signal (z-score),[17],-0.523
same,glycan array binding signal (z-score),[18],0.902
same,glycan array binding signal (z-score),[19],-0.515
same,glycan array binding signal (z-score),[20],-0.601
same,glycan array binding signal (z-score),[21],-0.549
same,glycan array binding signal (z-score),[22],0.065
same,glycan array binding signal (z-score),[23],-0.443
same,glycan array binding signal (z-score),[24],0.053
same,glycan array binding signal (z-score),[25],-0.526
same,glycan array binding signal (z-score),[26],1.26
same,glycan array binding signal (z-score),[27],-0.274
same,glycan array binding signal (z-score),[28],0.105
same,glycan array binding signal (z-score),[29],-0.456
same,glycan array binding signal (z-score),[30],-0.376
same,glycan array binding signal (z-score),[31],-0.605
same,glycan array binding signal (z-score),[32],-0.345
same,glycan array binding signal (z-score),[33],0.04
same,glycan array binding signal (z-score),[34],-0.533
same,glycan array binding signal (z-score),[35],-0.486
same,glycan array binding signal (z-score),[36],-0.426
same,glycan array binding signal (z-score),[37],1.27
same,glycan array binding signal (z-score),[38],-0.566
same,glycan array binding signal (z-score),[39],-0.135
same,glycan array binding signal (z-score),[40],-0.378
same,glycan array binding signal (z-score),[41],-0.077
same,glycan array binding signal (z-score),[42],-0.272
same,glycan array binding signal (z-score),[43],-0.398
same,glycan array binding signal (z-score),[44],-0.625
same,glycan array binding signal (z-score),[45],-0.537
